The full ranking holds about 33,000 sequences; the median of “E-score (-0.5 to 0.5)” is about -0.011, and the highest 2% start at about 0.28. The list shows a part of the results.
target: T1, Gcr1 (UniProt P07261); experiment: PBM E-score (8-mer binding enrichment) (E-score (-0.5 to 0.5)); higher = stronger / more preferred TF binding; most listed sequences are background and not binding sites; settings: protein concentration: 100 nM; construct: GST-full length
T1 sequence: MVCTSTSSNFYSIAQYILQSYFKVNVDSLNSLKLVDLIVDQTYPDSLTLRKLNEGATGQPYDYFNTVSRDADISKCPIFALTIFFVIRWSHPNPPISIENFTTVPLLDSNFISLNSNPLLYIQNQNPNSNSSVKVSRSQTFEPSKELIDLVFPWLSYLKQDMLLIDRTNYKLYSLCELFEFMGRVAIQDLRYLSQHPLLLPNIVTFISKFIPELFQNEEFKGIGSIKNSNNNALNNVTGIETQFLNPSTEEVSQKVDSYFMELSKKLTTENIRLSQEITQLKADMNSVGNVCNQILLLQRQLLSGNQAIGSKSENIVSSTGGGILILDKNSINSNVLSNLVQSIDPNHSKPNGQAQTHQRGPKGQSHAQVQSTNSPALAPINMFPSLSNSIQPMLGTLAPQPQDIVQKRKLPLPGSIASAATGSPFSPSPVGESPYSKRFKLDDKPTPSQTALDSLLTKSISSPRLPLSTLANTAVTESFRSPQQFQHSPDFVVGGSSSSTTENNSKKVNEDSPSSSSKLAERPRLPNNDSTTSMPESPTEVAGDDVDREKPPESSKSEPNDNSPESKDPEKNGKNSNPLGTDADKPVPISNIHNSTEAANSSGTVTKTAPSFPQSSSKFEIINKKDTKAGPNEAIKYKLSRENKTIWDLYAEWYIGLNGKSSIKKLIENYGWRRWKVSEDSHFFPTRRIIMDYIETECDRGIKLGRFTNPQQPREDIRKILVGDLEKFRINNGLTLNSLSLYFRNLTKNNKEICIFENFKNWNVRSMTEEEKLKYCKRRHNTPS
Summary of the method: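 Masliner-normalised scans of fluorescent anti-GST signal were the basis for scoring. That signal came from GST-tagged yeast transcription factors applied at about 100-200 nM to double-stranded universal all-10-mer Agilent arrays on fresh or once-stripped slides. Each ungapped eight-base word, pooled with its reverse complement, received an E-score from the Universal PBM Analysis Suite.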

Sequence	PBM E-score
ACCTCGAA	0.0904
CCGGGGAC	-0.00379
GTCTATCA	-0.0272
ATTAGCCA	-0.0404
AGGTTACA	-0.0235
TAGGACAA	0.00413
GCAAGTGA	-0.104
ACAGAATA	0.133
GAATACAC	-0.00547
GCTGTTCA	0.123
AATTCACG	0.0837
GTGCAGCA	-0.0521
CATGGGCA	0.115
AATCCAAA	0.205
GCCACCTA	0.0714
CCCGTGGC	0.103
GGGACGCA	0.16
AACATCCC	-0.109
AGGGCCGG	-0.0751
AACTGGGC	-0.196
AACTTTTC	0.0874
AAGTAGGG	0.187
CAACCTAC	-0.119
AAACTGCA	0.213
CAGGACGA	-0.145

Sequence	PBM E-score
AGGTTCCC	0.247
CGCTCTAG	0.0157
CGCACTAG	-0.0117
CTATCCCC	-0.118
AATTGACC	0.128
CAGTATTA	0.131
ACGAGAAT	-0.0263
GTCAGTAA	-0.264
AATATCCG	0.0616
AACTAACA	-0.0668
GTCTACAC	0.0198
CATCCCTA	-0.0284
CCTACTGC	-0.0338
ACCGGAAG	0.303
AGAGCTAT	-0.225
ACAATTGT	0.0177
ACCTATGA	-0.119
CCCTATCA	0.0995
AAGCATCT	0.229
CGAGCGAC	-0.066
AGTAACCA	0.136
AACCACTC	-0.0327
AGGGATGC	0.098
ACGAACTG	-0.0258
AAATTACG	0.178

Sequence	PBM E-score
ATTTGTCG	-0.0171
ACTATGAC	-0.13
GACTATGC	-0.023
CCGGAGCC	0.206
ATACGATA	0.111
GCCTGGCC	-0.288
ACCTTGAA	-0.131
CCTATCCA	-0.0709
ACGTAAGT	-0.0859
AAGCCTTG	-0.147
ATGGATGA	-0.0514
ATCCGTTG	0.0103
TACACGAA	0.258
GACCACCC	-0.176
CCTCATGA	-0.0561
TCACATCA	-0.063
ACCTAGTC	-0.0637
AGGGCTAT	-0.136
TACGGGAA	0.239
AGGAGTTA	-0.0906
CGGGAGAA	-0.152
ACCACCCG	-0.13
AACGTATG	-0.0753
CAAGAGGG	-0.309
CAATTTCG	0.0784

Sequence	PBM E-score
ACTAATCA	-0.0552
CCCGGAAA	0.26
ACTAGCGC	-0.0142
AAAGAGAG	-0.00056
CAGGATCG	0.154
ACACCGAG	-0.031
CCTGGAAG	0.0765
AATGGAAG	0.27
CTGCCGAA	-0.0682
ACTGGCGA	-0.102
CACTACCC	0.0415
ACGACATC	-0.0369
ATCGCTCC	-0.281
TCAAGAGA	-0.155
ACTCTTGG	0.125
CTCCGACA	-0.0826
AGGCTCTA	-0.107
CCCATCGG	0.0729
GCGCGTAC	0.03
CAGCCCGG	-0.173
CATAAGGA	-0.131
AGTCATCC	-0.25
GTTGGATA	-0.0858
ATAGGGTG	0.118
CCGCAACG	0.108

Sequence	PBM E-score
ATTATCAA	0.127
AACTGATC	-0.114
TCATATCA	0.0493
CCATCCAC	-0.0219
GAGATAAA	0.105
ACCTCAGA	0.115
AATGGATC	0.0672
GAGATCCC	0.0362
ACCGGCCA	-0.0698
AGGCCGCC	0.292
ATAGAGGA	0.346
ATGTAGCG	0.137
AGGCAGTG	-0.0295
ACCTCTCG	0.00236
ATGGTCAC	-0.0692
AACCGGAC	-0.015
ACGGAAAA	-0.00228
CGCGAGAG	-0.129
CGTTAAGA	-0.0966
CTCACAAC	0.0213
TAATCGGA	0.0478
ATCCTCGA	0.053
AGTCACAT	0.0264
TGTGGTAA	0.0312
GGCTGCAA	0.128

Sequence	PBM E-score
ACCTGCCA	0.0124
CCACAGAG	0.0219
CCAAAACA	0.0464
TCTATGAA	-0.00286
ATCCCAGA	0.191
ACATTCCA	-0.0868
TGCTTCAA	-0.178
ACAACCAG	0.0717
ATGTACCC	0.14
TAAAACGA	-0.0294
CAATGTAA	0.0141
CAAGTGAG	-0.237
AATAGAGT	0.0735
AATCGAGG	0.0685
AATGTCTG	0.0287
CGCGATGA	-0.119
CTCCACAG	-0.0833
TCCCGTCA	0.00392
TCATGACA	-0.0321
CCTGAAGA	0.17
GAACGACC	-0.165
ATTAATCA	0.0591
AGCAGGGA	-0.295
AAAACCGA	-0.223
CTAACTAG	-0.0144

Sequence	PBM E-score
CCCATCCC	-0.0408
CAGCAGAA	0.00834
GCGTCGAA	-0.0217
CCTGCGAA	0.0189
AGGCACAT	-0.0553
CACACACA	-0.0394
CGCATGAA	0.0588
AGAAGAAC	0.13
AATGTATC	-0.00652
ATGGCAAA	-0.132
AACATGAG	-0.0818
CTACACGA	0.183
AAACATCC	-0.0125
AACACGTC	-0.0973
AGGGTATC	-0.193
AACAACCT	0.108
AGATATAT	0.0972
CCGCCACA	0.185
CTTTTTCC	-0.0076
ACACTCTC	-0.0813
AGCGAAAC	0.0411
GGTAGAAA	0.00331
GCATCTCC	0.152
CGCCAACC	-0.0353
GATTTCGC	0.077

Sequence	PBM E-score
GCGTGTAC	0.0849
CCGTTGTA	-0.106
CCACGCGC	-0.106
GAGTTTCA	-0.0957
CGCGATTA	0.0269
CCCAAACA	0.0508
AATATCGC	-0.0601
ATTGATCA	-0.157
AGTGACCC	-0.125
CCCATGCG	-0.00239
TATATCAA	-0.0485
CGCCTAAA	0.183
AGGTCAGC	-0.175
AAGATTTA	0.153
GCAGCTAC	0.267
CTCTAAAA	0.0248
CAAGTTAG	-0.138
AGTACGTC	-0.0158
ATAGATCG	-0.126
CACGCAGC	0.295
AATACTTG	-0.0203
ATTGCCGC	-0.0608
ATGGAGGG	-0.218
GGCTCCCA	0.348
CAACCACC	0.122

Sequence	PBM E-score
TCACCCAA	-0.00294
GCCGTCGA	-0.197
CGTTCTAA	0.0491
AAGATGGG	0.137
CGGTACAA	0.0327
AGAATAAC	0.0457
AAAATATC	0.129
ACCTGAAC	-0.051
GCTGATCC	-0.0746
AGTCCATG	-0.045
AGGCTGGC	-0.163
CGGCCCGC	-0.26
CGGTAGAG	0.0493
AGAAGCCT	0.273
GTGGATAA	0.00407
GAGGTCGA	-0.222
AGGCCTTG	-0.321
AAACAACG	0.0681
AGTTAAGA	0.0167
CGCTGACC	-0.127
AAGTTCAG	-0.00811
AGCACTTG	-0.15
GACTGGTA	0.172
AAACGCAG	-0.0998
CTAGCACC	0.31

Sequence	PBM E-score
ACCTTCCC	-0.00014
AGCAGAAC	-0.0186
CGGGAATA	0.0358
GGGGTTAC	-0.215
CTTGGACC	-0.0788
ACGTTGGC	-0.122
CGTATTGC	-0.0106
GACCATAC	0.159
GGCGACCC	-0.096
GGGGGTTA	-0.256
CCGGGATA	0.147
CGCCGTCC	0.149
GTACCGGA	0.0665
AGTACTCA	0.00491
ACTAGAGA	-0.0967
CCGGTCTC	0.0594
AGCATGCG	-0.268
CGGGCGAC	0.177
AGTCGTGA	-0.0313
CTATGTGC	0.00208
CAAGTGTA	-0.255
ACAATCCC	-0.0674
AAGTTGGT	0.0907
ACAAGGAA	0.193
CTACTATA	0.282

Sequence	PBM E-score
GCGCGCAA	0.176
TACAACGA	-0.0189
CAATTTGA	0.193
CGGAGGTC	-0.139
CCCTGACA	-0.0595
CCCCGCGA	-0.0994
ATAGCCCA	-0.075
GAGGACAA	-0.19
AATCTATG	0.163
GATTTGAC	-0.113
CCAGCTGC	0.218
CTGTCGGC	-0.152
AGCGTGGC	-0.133
ACTTCGCT	-0.174
CATAGTTA	-0.15
ACACGCTG	0.167
CGAAACCC	-0.0492
ATAAGCTC	-0.102
GAGGGGCC	-0.0344
CTCCGCCA	-0.0655
TATGGTGA	0.00859
CGATCCCG	-0.0355
CAAACTAA	0.00609
AAGGATTC	-0.00527
GGGACCAA	0.134

Sequence	PBM E-score
GCTCAGCC	-0.246
ACTTGCCC	-0.0641
AATATACT	-0.0886
CCTTACAA	0.027
AGTAGTAG	0.144
ACAGAACA	-0.0374
ACTCCGCA	0.156
CCTGCTAC	-0.0553
ACCGGTCG	0.0453
CTGTCATA	-0.00757
CCCATCAC	-0.136
CGAGAAGC	0.26
CCCTGATC	0.00139
ATCACAGC	-0.193
AATGGGCC	0.0902
GAAACAGC	-0.0542
CCGCTAAC	0.141
CACAATCG	0.0642
ACCCGGGA	0.0783
GCGGAGTA	-0.0905
CCATGGCA	-0.136
TAGGCGCA	0.225
GAAGACGC	0.304
CACCCCGG	-0.151
AATCACAC	0.113

Sequence	PBM E-score
GGAGTTAC	-0.288
CCGACCCG	-0.148
GACGATTA	-0.0443
CAATATCA	-0.207
GTCAGAAC	-0.0896
CAGCGGAA	0.0476
AGGTTACT	-0.0782
CTCAACAG	0.0101
CAAATGTA	0.0852
CCGGGTGC	0.245
GCTAAATA	0.129
CTATCTTA	0.0203
GCACGCCC	-0.122
GCCCATGA	-0.121
CACTTAAG	0.052
CTAAGCTC	-0.126
ACGGCCCT	-0.263
ATGGTGCG	0.0681
GAGTTTGC	-0.142
AGTCACCA	-0.0677
ATATTTGA	0.0958
ATGCCTTA	-0.15
ACATAACA	0.0753
AGGTGACA	0.0175
AATGGCAG	0.143

Sequence	PBM E-score
GGTCCTCA	-0.0385
AATCATGT	-0.137
ACAGACCG	-0.104
ACACATCA	0.0271
CGATTAAC	0.013
CATTACCG	-0.153
GAGGGGAC	-0.0671
CCCGTCTA	-0.0544
CATGAGTA	-0.0943
AGGATTCG	0.126
AGCTTCGA	0.0125
ATTGTGCG	-0.236
ACAGAGCG	-0.229
ACTTAAGT	0.0648
ACTGTCTC	-0.0499
TCTGGACA	0.0373
GAGCTGAC	-0.0979
CGCGGCCC	0.0327
TCATACGA	0.111
